Repeats are few or missing, and single values can be far off.
How the values were obtained:
CHO-K1 [1] = assay: micronucleus frequency (% of nucleated events); higher = more micronuclei (genotoxic)
CHO-K1 [2] = assay: hypodiploid nuclei frequency (% of nucleated events); higher = more hypodiploid events (aneugenic)
Procedure: (§1)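 Flow-cytometric in vitro micronucleus assay (Litron MicroFlow) in CHO-K1 cells in 96-well plates, 19 concentrations (4.5-200 µM, n=1 per concentration). Without S9, cells were exposed for 24 h and sampled at 48 h. With Aroclor 1254-induced rat liver S9, cells were exposed for 3-4 h and sampled at 27-28 h. Read-outs are %MN and %hypodiploid nuclei relative to nucleated events, and relative survival as the nuclei-to-bead ratio versus the 1% DMSO vehicle control (x100).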

CHO-K1 [3] = assay: relative survival (nuclei to bead ratio vs DMSO control) (% of vehicle control); higher = more surviving cells
Procedure: as §1

[4] = concentration: 4.5 (µM), S9 metabolic activation: with S9, exposure time: 3-4 hours
[5] = concentration: 4.5 (µM), S9 metabolic activation: without S9, exposure time: 24 hours
[6] = concentration: 5.63 (µM), S9 metabolic activation: with S9, exposure time: 3-4 hours
[7] = concentration: 5.63 (µM), S9 metabolic activation: without S9, exposure time: 24 hours
[8] = concentration: 7.04 (µM), S9 metabolic activation: with S9, exposure time: 3-4 hours
[9] = concentration: 7.04 (µM), S9 metabolic activation: without S9, exposure time: 24 hours
[10] = concentration: 8.8 (µM), S9 metabolic activation: with S9, exposure time: 3-4 hours
[11] = concentration: 8.8 (µM), S9 metabolic activation: without S9, exposure time: 24 hours
[12] = concentration: 11 (µM), S9 metabolic activation: with S9, exposure time: 3-4 hours
[13] = concentration: 11 (µM), S9 metabolic activation: without S9, exposure time: 24 hours
[14] = concentration: 13.7 (µM), S9 metabolic activation: with S9, exposure time: 3-4 hours
[15] = concentration: 13.7 (µM), S9 metabolic activation: without S9, exposure time: 24 hours
[16] = concentration: 17.2 (µM), S9 metabolic activation: with S9, exposure time: 3-4 hours
[17] = concentration: 17.2 (µM), S9 metabolic activation: without S9, exposure time: 24 hours
[18] = concentration: 21.5 (µM), S9 metabolic activation: with S9, exposure time: 3-4 hours
[19] = concentration: 21.5 (µM), S9 metabolic activation: without S9, exposure time: 24 hours
[20] = concentration: 26.8 (µM), S9 metabolic activation: with S9, exposure time: 3-4 hours
[21] = concentration: 26.8 (µM), S9 metabolic activation: without S9, exposure time: 24 hours
[22] = concentration: 33.6 (µM), S9 metabolic activation: with S9, exposure time: 3-4 hours
[23] = concentration: 33.6 (µM), S9 metabolic activation: without S9, exposure time: 24 hours
[24] = concentration: 41.9 (µM), S9 metabolic activation: with S9, exposure time: 3-4 hours
[25] = concentration: 41.9 (µM), S9 metabolic activation: without S9, exposure time: 24 hours
[26] = concentration: 52.4 (µM), S9 metabolic activation: with S9, exposure time: 3-4 hours
[27] = concentration: 52.4 (µM), S9 metabolic activation: without S9, exposure time: 24 hours
[28] = concentration: 65.5 (µM), S9 metabolic activation: with S9, exposure time: 3-4 hours
[29] = concentration: 65.5 (µM), S9 metabolic activation: without S9, exposure time: 24 hours
[30] = concentration: 81.9 (µM), S9 metabolic activation: with S9, exposure time: 3-4 hours
[31] = concentration: 81.9 (µM), S9 metabolic activation: without S9, exposure time: 24 hours
[32] = concentration: 102 (µM), S9 metabolic activation: with S9, exposure time: 3-4 hours
[33] = concentration: 102 (µM), S9 metabolic activation: without S9, exposure time: 24 hours
[34] = concentration: 128 (µM), S9 metabolic activation: with S9, exposure time: 3-4 hours
[35] = concentration: 128 (µM), S9 metabolic activation: without S9, exposure time: 24 hours
[36] = concentration: 160 (µM), S9 metabolic activation: with S9, exposure time: 3-4 hours
[37] = concentration: 160 (µM), S9 metabolic activation: without S9, exposure time: 24 hours
[38] = concentration: 200 (µM), S9 metabolic activation: with S9, exposure time: 3-4 hours
[39] = concentration: 200 (µM), S9 metabolic activation: without S9, exposure time: 24 hours
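Wherever hypodiploid nuclei frequency (% of nucleated events) is given: hypodiploid nuclei gated on a flow cytometer with 488 nm excitation after SYTOX Green staining, cultures at 37 °C, positive controls vinblastine without S9 and cyclophosphamide with S9.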
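Wherever micronucleus frequency (% of nucleated events) is given: cells lysed with nuclei stained by SYTOX Green, then micronucleus-gated events counted against nucleated events by flow cytometry with 488 nm excitation.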
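Wherever relative survival (nuclei to bead ratio vs DMSO control) is given: Lysed-cell nuclei stained with SYTOX Green and counted against counting beads by flow cytometry at 488 nm excitation, with vinblastine (no S9) and cyclophosphamide (plus S9) as positive controls.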

C=CCOC(=O)c1ccccc1C(=O)OCC=C [Diallyl phthalate]
micronucleus frequency (CHO-K1 [1]; [4]): 0.96%
micronucleus frequency (CHO-K1 [1]; [5]): 1.2%
micronucleus frequency (CHO-K1 [1]; [6]): 1.04%
micronucleus frequency (CHO-K1 [1]; [7]): 1.28%
micronucleus frequency (CHO-K1 [1]; [8]): 0.94%
micronucleus frequency (CHO-K1 [1]; [9]): 1.06%
micronucleus frequency (CHO-K1 [1]; [10]): 1.06%
micronucleus frequency (CHO-K1 [1]; [11]): 1.08%
micronucleus frequency (CHO-K1 [1]; [12]): 1.26%
micronucleus frequency (CHO-K1 [1]; [13]): 0.94%
micronucleus frequency (CHO-K1 [1]; [14]): 1.36%
micronucleus frequency (CHO-K1 [1]; [15]): 1.38%
micronucleus frequency (CHO-K1 [1]; [16]): 1.32%
micronucleus frequency (CHO-K1 [1]; [17]): 1.08%
micronucleus frequency (CHO-K1 [1]; [18]): 1.08%
micronucleus frequency (CHO-K1 [1]; [19]): 1.6%
micronucleus frequency (CHO-K1 [1]; [20]): 1.1%
micronucleus frequency (CHO-K1 [1]; [21]): 1.2%
micronucleus frequency (CHO-K1 [1]; [22]): 1.32%
micronucleus frequency (CHO-K1 [1]; [23]): 1.3%
micronucleus frequency (CHO-K1 [1]; [24]): 1.48%
micronucleus frequency (CHO-K1 [1]; [25]): 1.08%
micronucleus frequency (CHO-K1 [1]; [26]): 1.82%
micronucleus frequency (CHO-K1 [1]; [27]): 1.4%
micronucleus frequency (CHO-K1 [1]; [28]): 1.64%
micronucleus frequency (CHO-K1 [1]; [29]): 1.36%
micronucleus frequency (CHO-K1 [1]; [30]): 1.22%
micronucleus frequency (CHO-K1 [1]; [31]): 1.4%
micronucleus frequency (CHO-K1 [1]; [32]): 1.22%
micronucleus frequency (CHO-K1 [1]; [33]): 1.48%
micronucleus frequency (CHO-K1 [1]; [34]): 1.52%
micronucleus frequency (CHO-K1 [1]; [35]): 1.34%
micronucleus frequency (CHO-K1 [1]; [36]): 1.82%
micronucleus frequency (CHO-K1 [1]; [37]): 1.68%
micronucleus frequency (CHO-K1 [1]; [38]): 2.14%
micronucleus frequency (CHO-K1 [1]; [39]): 1.38%
hypodiploid nuclei frequency (CHO-K1 [2]; [4]): 0.24%
hypodiploid nuclei frequency (CHO-K1 [2]; [5]): 0.42%
hypodiploid nuclei frequency (CHO-K1 [2]; [6]): 0.12%
hypodiploid nuclei frequency (CHO-K1 [2]; [7]): 0.72%
hypodiploid nuclei frequency (CHO-K1 [2]; [8]): 0.16%
hypodiploid nuclei frequency (CHO-K1 [2]; [9]): 0.56%
hypodiploid nuclei frequency (CHO-K1 [2]; [10]): 0.12%
hypodiploid nuclei frequency (CHO-K1 [2]; [11]): 0.58%
hypodiploid nuclei frequency (CHO-K1 [2]; [12]): 0.14%
hypodiploid nuclei frequency (CHO-K1 [2]; [13]): 0.44%
hypodiploid nuclei frequency (CHO-K1 [2]; [14]): 0.24%
hypodiploid nuclei frequency (CHO-K1 [2]; [15]): 0.64%
hypodiploid nuclei frequency (CHO-K1 [2]; [16]): 0.12%
hypodiploid nuclei frequency (CHO-K1 [2]; [17]): 0.56%
hypodiploid nuclei frequency (CHO-K1 [2]; [18]): 0.14%
hypodiploid nuclei frequency (CHO-K1 [2]; [19]): 0.84%
hypodiploid nuclei frequency (CHO-K1 [2]; [20]): 0.16%
hypodiploid nuclei frequency (CHO-K1 [2]; [21]): 0.7%
hypodiploid nuclei frequency (CHO-K1 [2]; [22]): 0.26%
hypodiploid nuclei frequency (CHO-K1 [2]; [23]): 0.8%
hypodiploid nuclei frequency (CHO-K1 [2]; [24]): 0.38%
hypodiploid nuclei frequency (CHO-K1 [2]; [25]): 0.74%
hypodiploid nuclei frequency (CHO-K1 [2]; [26]): 0.14%
hypodiploid nuclei frequency (CHO-K1 [2]; [27]): 0.6%
hypodiploid nuclei frequency (CHO-K1 [2]; [28]): 0.22%
hypodiploid nuclei frequency (CHO-K1 [2]; [29]): 0.74%
hypodiploid nuclei frequency (CHO-K1 [2]; [30]): 0.1%
hypodiploid nuclei frequency (CHO-K1 [2]; [31]): 0.98%
hypodiploid nuclei frequency (CHO-K1 [2]; [32]): 0.32%
hypodiploid nuclei frequency (CHO-K1 [2]; [33]): 0.94%
hypodiploid nuclei frequency (CHO-K1 [2]; [34]): 0.28%
hypodiploid nuclei frequency (CHO-K1 [2]; [35]): 1.04%
hypodiploid nuclei frequency (CHO-K1 [2]; [36]): 0.14%
hypodiploid nuclei frequency (CHO-K1 [2]; [37]): 1.26%
hypodiploid nuclei frequency (CHO-K1 [2]; [38]): 0.24%
hypodiploid nuclei frequency (CHO-K1 [2]; [39]): 0.92%
relative survival (CHO-K1 [3]; [4]): 100
relative survival (CHO-K1 [3]; [5]): 105
relative survival (CHO-K1 [3]; [6]): 89.8
relative survival (CHO-K1 [3]; [7]): 110
relative survival (CHO-K1 [3]; [8]): 89.5
relative survival (CHO-K1 [3]; [9]): 116
relative survival (CHO-K1 [3]; [10]): 105
relative survival (CHO-K1 [3]; [11]): 112
relative survival (CHO-K1 [3]; [12]): 86.2
relative survival (CHO-K1 [3]; [13]): 109
relative survival (CHO-K1 [3]; [14]): 81.2
relative survival (CHO-K1 [3]; [15]): 117
relative survival (CHO-K1 [3]; [16]): 92.1
relative survival (CHO-K1 [3]; [17]): 102
relative survival (CHO-K1 [3]; [18]): 81.9
relative survival (CHO-K1 [3]; [19]): 119
relative survival (CHO-K1 [3]; [20]): 102
relative survival (CHO-K1 [3]; [21]): 109
relative survival (CHO-K1 [3]; [22]): 115
relative survival (CHO-K1 [3]; [23]): 150
relative survival (CHO-K1 [3]; [24]): 104
relative survival (CHO-K1 [3]; [25]): 111
relative survival (CHO-K1 [3]; [26]): 99.2
relative survival (CHO-K1 [3]; [27]): 120
relative survival (CHO-K1 [3]; [28]): 86.2
relative survival (CHO-K1 [3]; [29]): 135
relative survival (CHO-K1 [3]; [30]): 94.9
relative survival (CHO-K1 [3]; [31]): 107
relative survival (CHO-K1 [3]; [32]): 74.8
relative survival (CHO-K1 [3]; [33]): 93.8
relative survival (CHO-K1 [3]; [34]): 79
relative survival (CHO-K1 [3]; [35]): 114
relative survival (CHO-K1 [3]; [36]): 64.5
relative survival (CHO-K1 [3]; [37]): 95.1
relative survival (CHO-K1 [3]; [38]): 55.3
relative survival (CHO-K1 [3]; [39]): 113

— the supplement of paper PMC9151546
